This is one part of the list.
tested on: PfHDP1 homeodomain (GST-tagged); experiment: gcPBM binding intensity (ln(normalized median fluorescence intensity)); higher = stronger DNA binding
How it was run: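 The binding buffer was 1× PBS containing 1% milk, 0.2 mg/ml BSA, 0.5% salmon testes DNA and 0.03% Triton X-100. In it, GST-tagged P. falciparum DNA-binding domains expressed in E. coli were applied for 1 h to an Agilent 4 × 180k array of primer-extended double-stranded 36-bp intergenic genomic probes plus negative controls. Binding intensity, read with Alexa488 anti-GST antibody and a 488 nm scan, is the highest Masliner-normalised natural-log median intensity across replicate spots of either probe orientation.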

Sequence | gcPBM binding intensity (ln)
ATGGAAATATATACATGTACATAAATATATATATAT [XGTACX_site8391] | 8.78
AGTAGTCTGGAGAAGAGTACATAGTATCTGGTAACC [XGTACX_site2043] | 6.29
ATGTTTTGCATATATTATATATTTATTTATTTTTTT [CACACA_negctrl_site729] | 7.36
AGTGGACTTTTTTTTTTTTTTTTTTTTTTTTTATTA [CACACA_negctrl_site547] | 5.88
GATATAATTATATTATGGTGTTTTTGATAGATATTT [GTGCAC_negctrl_site313] | 6.42
AGTATATACACGTGCGTGCACAGATATTCTTTTTTT [GTGCAC_site9398] | 9.58
TATTTTAAAGAGAAAACATGCATTATATAGAACATT [TGCATGCA_site328] | 6.67
ATCAAACCATAAAAGAGTACAAAAGGATGATATTTT [XGTACX_site8883] | 6.59
TGTATATTTTTTATTACACACTTTTTACTTTTTAGA [CACACA_site3069] | 6.46
TTTTTTAATTGTGATACGTATATTATTTAATGATAA [GTGCAC_negctrl_site704] | 6.41
ATAAAATATAGATGCACACACATATAGATTTCATAC [CACACA_site7636] | 8.42
ATCTGTCGACAGGACAGTACACAGTAGCCAGTAACT [XGTACX_site2001] | 6.09
ATATATATATATAGTGCACACATATAAAATATATAT [CACACA_site8884] | 10.3
TTATATGCTCAATGTTGTACATGTAGATATATATAT [XGTACX_site8211] | 9.77
TATTTATCATCATATTGTACATTATATATATAAAAT [XGTACX_site6675] | 6.7
AATAAAAAAATGTCACGTACTTATTTTATTAAACCT [XGTACX_site3031] | 6.48
GTATGGCGTATCATATGTACTAAAAAAAAATAAAAA [XGTACX_site5101] | 6.49
AAGTATGTCGACTGTTGTACTTTTATCATTTATTAT [XGTACX_site1129] | 6.6
ATATACTATGATAATACATGCGATAATACATTTTTA [TGCATGCA_site387] | 6.25

Sequence | gcPBM binding intensity (ln)
GCTTTAATCTGAAAGTGTACAGATAATATATTTATA [XGTACX_site2462] | 6.32
TGCATTATTTACAAGGTGCGTTACAAATGTGTAACA [GTGCAC_site9442] | 7.14
ATATATTATATATATATATATATATATTATTATTGT [TGCATGCA_negctrl_site286] | 7.58
TATGAATATTTGTATACATGCATATAGAAATCATAT [TGCATGCA_site533] | 6.43
TATTTGTAATATTATACACACATTATATATTACAAA [CACACA_site5804] | 6.97
TATTTTGTATATAAATGTACAAGTATATATTTTTTC [XGTACX_site7855] | 6.23
CGTAGCCACACTAACACACACAAATATACACAATCA [CACACA_site7379] | 6.71
ATTTAAATAACGTATGTATATACATATATATATATA [TGCATGCA_negctrl_site207] | 9.21
GATAAATGTATATATGCATGCACATATATTTATACA [TGCATGCA_site748] | 8.96
ATATATAGAATGTGTACACACATATGTATTTATATA [CACACA_site810] | 6.7
ATTTTTTATGGACAAAAGACCTCTGATGTAAATATA [CACACA_negctrl_site1081] | 6.22
AATTAGATTATGCACACACACTTAAAAATAATAAAT [CACACA_site7015] | 10.4
TTTTTTTTTTTCTTAGTGCGCGTGAAAAATATAAAA | 6.53
TTACTCAAACAAACAAAAAAAAAAAAAAAAAAAAAA [TGCATGCA_negctrl_site457] | 5.82
TATATATATATTTTTGCATGTAATTTTTATGAGGAC [TGCATGCA_site884] | 8.37
TACTATAACGCACATACACACAAAAAAAAAAAAAAA [CACACA_site8073] | 7.97
TTATACATGAAATATTGTACACATATATATATATAT [XGTACX_site4378] | 9.41
ATATGGTGATATAGGTGTACATTTTGATGCTTATTT [XGTACX_site4283] | 6.53
AAGGGAAAATTAAGGTTGCACTAAAAATATATCTTT [GTGCAC_site9608] | 8.45

Sequence | gcPBM binding intensity (ln)
ATGAACATACAATATACACACATATATATTTATATT [CACACA_site4609] | 6.96
ATTCAAATTGTAGAAACACACAAAAACTTAACATAT [CACACA_site2617] | 6.86
TAGTTAACAAATAATGCACACAAATGGATAAAATTA [CACACA_site9240] | 10.6
CATATGATATGTTATACACACACGTATATATGAATT [CACACA_site3446] | 6.72
AAAAATAAAAAAATGACACACATATATATATATATA [CACACA_site2307] | 9.4
TATCTCTTATTTTATTGTACTTAACTATGCTATAAT [XGTACX_site4904] | 6.86
TAAGTATAATATTGATGTACATATAATAACTTGTAT [XGTACX_site417] | 6.2
ATTTATATATAATATACACACATATAATCCACATAT [CACACA_site699] | 7.14
AAGAGAAATTATAACATGTGAAATGTATTATATATA [TGCATGCA_negctrl_site254] | 6.26
TTTTTCATCATATGTTGTACAATGTGTAGATATATT [XGTACX_site3195] | 7.02
GAATAAATATTAAATGTGCACTTGAATAGATGTAAA | 9.88
CACGCGCCCGGACACACACACACACCCATATATATA [CACACA_site5251] | 6.84
CTTTGTGTTAAAAGTAGTACACCAAAAATATGACTT [XGTACX_site622] | 6.4
AGATACGATTATATGCGTTCAATATACCAAATAATT [TGCATGCA_negctrl_site501] | 6.08
TAATATTATAGATAAACACACATACACATGTAAATA [CACACA_site7049] | 6.84
AAATGAAATTTGTATACACACAAATATATATATATA [CACACA_site836] | 9.07
TATAAGCAAAAACACACACACATATATATATATATA [CACACA_site3804] | 9.41
AATAATAATAGTAATATGTACATATATATATATATA [TGCATGCA_negctrl_site542] | 9.32
